About 14,000 (4.5%) of roughly 310,000 compounds showed an effect of 50% or more. The effect is printed as a negative number. This is one part of the list.
Each compound was assayed against human ether-à-go-go-related gene (hERG) potassium channel (human, UniProt Q12809) (assay: primary screen, population patch clamp on CHO cells stably expressing hERG).
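Also: peak tail current of the secondary pulse compared with the same well before compound.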

human ether-à-go-go-related gene (hERG) potassium channel, sequence (Q12809 whole entry, looked up): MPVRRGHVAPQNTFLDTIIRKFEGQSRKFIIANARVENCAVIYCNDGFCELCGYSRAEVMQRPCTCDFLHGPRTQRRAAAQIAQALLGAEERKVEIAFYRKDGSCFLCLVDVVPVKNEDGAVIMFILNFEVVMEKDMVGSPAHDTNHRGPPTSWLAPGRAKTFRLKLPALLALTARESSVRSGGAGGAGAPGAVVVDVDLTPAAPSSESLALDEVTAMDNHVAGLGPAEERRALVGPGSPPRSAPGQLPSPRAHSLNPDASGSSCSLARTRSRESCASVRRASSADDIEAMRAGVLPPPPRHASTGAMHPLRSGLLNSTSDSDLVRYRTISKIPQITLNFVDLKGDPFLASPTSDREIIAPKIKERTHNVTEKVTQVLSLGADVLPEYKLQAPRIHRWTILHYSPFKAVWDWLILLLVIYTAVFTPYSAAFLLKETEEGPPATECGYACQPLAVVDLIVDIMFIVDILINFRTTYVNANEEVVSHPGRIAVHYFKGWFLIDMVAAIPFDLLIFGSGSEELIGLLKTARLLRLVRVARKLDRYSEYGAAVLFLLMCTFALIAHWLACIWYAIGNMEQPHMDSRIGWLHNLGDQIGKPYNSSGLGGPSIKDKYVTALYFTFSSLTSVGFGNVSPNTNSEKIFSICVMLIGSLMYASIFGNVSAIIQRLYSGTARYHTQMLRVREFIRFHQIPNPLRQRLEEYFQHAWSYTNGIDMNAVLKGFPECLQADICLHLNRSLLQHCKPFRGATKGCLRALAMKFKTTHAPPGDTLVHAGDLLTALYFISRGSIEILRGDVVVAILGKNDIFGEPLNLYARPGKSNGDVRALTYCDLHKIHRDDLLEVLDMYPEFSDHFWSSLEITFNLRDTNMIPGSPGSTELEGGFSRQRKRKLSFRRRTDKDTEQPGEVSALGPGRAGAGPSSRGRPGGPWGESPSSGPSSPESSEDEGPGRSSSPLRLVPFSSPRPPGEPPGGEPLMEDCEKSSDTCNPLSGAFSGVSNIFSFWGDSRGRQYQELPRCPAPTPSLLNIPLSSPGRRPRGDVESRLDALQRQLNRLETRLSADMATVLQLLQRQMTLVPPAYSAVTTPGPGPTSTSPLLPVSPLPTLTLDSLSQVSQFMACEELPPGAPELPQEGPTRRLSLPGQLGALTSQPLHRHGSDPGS

Structure (SMILES)	hERG current change (%, negative = inhibition) at 10uM [%]
O=C(N/N=C/C=C\c1ccccc1[N+](=O)[O-])c1ccco1	-10.4
CC(Cc1ccccc1)NC(=O)CSc1nc2nc3c(cc2c(=O)n1-c1ccccc1)COC(C)(C)C3 (stereo not drawn)	-14
COc1ccc2c(C(=O)c3ccc(C)cc3)n(CCCC(N)=O)[n+]([O-])c2c1	-44.2
CNc1oc(-c2ccccc2Cl)nc1P(=O)(c1ccccc1)c1ccccc1	-3.35
CC(C)(C)Cc1nnc(NS(=O)(=O)c2ccccc2)s1	33.4
COCC(=O)N1CCC(Oc2ccc(C(=O)N[C@H](C(=O)OC)C(C)C)cc2)CC1	24.7
O=C(Nc1ccc(F)c([N+](=O)[O-])c1)c1ccc2c(c1)OCCO2	25.6
O=C1CCC(C(=O)OCC(=O)c2c[nH]c3ccccc23)=NN1	1.19
COc1ccc(C(=O)COC(=O)CCCN=C2NS(=O)(=O)c3ccccc32)c(OC)c1	-10.5
CC(=O)NNS(=O)(=O)c1scc(S(=O)(=O)c2ccc(Cl)cc2)c1C	12.3
CCOc1ccc(NC(=O)N2CCC(n3nnc4ccccc43)CC2)cc1	-15.4
CCOC(=O)C1=C(O)/C(=C/c2ccc(OCC(=O)O)c(OCC)c2)SC1=Nc1ccc(OC)cc1	15.7
Cc1ccccc1Nc1nc(N2CCOCC2)nc(N2CCOCC2)n1.Cl	14
COc1ccc(-c2nc(NC(=O)C3CC(=O)N(Cc4ccco4)C3)sc2C)cc1 (stereo not drawn)	-34.3
COc1ccc(S(=O)(=O)N(CC(=O)N/N=C/c2cccs2)c2ccc(C)cc2)cc1OC	-23.6
O=C(CN1CCN(S(=O)(=O)c2ccc(Cl)s2)CC1)N1CCCCC1	-21.5
O=C(N/N=C/C(Br)=C/c1ccccc1)c1cccs1	6.77
C[C@@H]1CCC(=O)N(C[C@@H](C)CSc2ccc(Br)cc2)CC1	-8.13
CCOc1ncccc1C(=O)N1CCN(c2ccc(C(F)(F)F)cn2)CC1	-7.14
O=C(c1ccc2c(c1)OCCO2)N1CCCC(CNS(=O)(=O)c2cccs2)C1 (stereo not drawn)	8.14
COc1nc(C)nc2c1ccc1ccccc12	6.71

Structure (SMILES)	hERG current change (%, negative = inhibition) at 10uM [%]
Cc1cc(Nc2ccc(C(C)C)cc2)n2ncnc2n1	-40.8
COc1ccc(C2(CNC(=O)c3ccc(C)cc3)CCOCC2)cc1	-8.18
Cc1ccc(C2=[N+]([O-])C3(CCCCC/C3=N\NC(N)=S)N(O)C2(C)C)o1 (stereo not drawn)	5.99
CCOC(=O)/C(C#N)=C/c1cn(CCC(=O)O)nc1-c1ccc(OC)cc1	15.4
Cc1ccc(C(C)NC(=O)c2ccc3c(c2)OCCO3)cc1C (stereo not drawn)	-8.36
CCOC(=O)C1(CCc2ccccc2)CCN(Cc2ccco2)CC1	-76.5
CCCc1nc2oc3ccccc3c(=O)c2c(=O)n1CCCOC	0.168
CCc1ccc2ncc(C(=O)c3ccccc3)c(N3CCOCC3)c2c1	-45.7
C=CCOC(=O)C1=C[C@H](C(C)(C)C)[C@@H](CCCO)[C@H](OCC)O1	0.0838
CCOC(=O)C1CCN(C(=O)c2ccc3c(c2)NC(=O)/C(=C\c2ccc(C)cc2)S3)CC1	9.36
CCN(CCn1cccn1)C(=O)c1cc(COc2cc(C)ccc2C)on1	-13.7
CC1CCCN(C(=O)COc2ccc(NC(=O)c3cccs3)cc2)C1 (stereo not drawn)	2.95
COC(=O)c1ccccc1NC(=O)c1cc(OC)cc(OC)c1	-2.7
CC(=O)c1nnn(-c2cccc([N+](=O)[O-])c2)c1C	14.6
O=C(c1ccccc1)N(Cc1cccs1)C1CCS(=O)(=O)C1 (stereo not drawn)	12
Cc1ccc(OCc2ccc(C(=O)Nc3nccs3)o2)cc1	3.74
O=C1NC(=O)C2(Cc3ccccc3N3CCCC32)C(=O)N1c1ccccc1 (stereo not drawn)	14
O=C(COC(=O)COc1ccccc1F)Nc1ccc(Cl)cn1	7.81
COCCn1c(SCC(=O)N2CCOCC2)nnc1-c1ccco1	28.1
C=CCN(CC=C)CCOc1ccc(OC(C)C)cc1.O=C(O)C(=O)O	-47.5
O=C(N/N=C(\c1ccccc1)c1cccnc1)c1cc(O)ccc1O	16.4

Structure (SMILES)	hERG current change (%, negative = inhibition) at 10uM [%]
Cc1cccc(C(=O)OCC(=O)NCc2ccco2)c1	14.9
Cc1nc(Nc2cc(F)ccc2C)c2nnn(Cc3ccccc3)c2n1	-16.9
CCN(CC)S(=O)(=O)c1ccc(Cl)c(C(=O)Nc2cc(C)nn2-c2ccccc2C(F)(F)F)c1	-23.1
C=CCNC(=O)/C=C/c1c(F)cccc1Cl	-0.397
Cc1nn(CC(=O)Nc2ccccc2)c(=O)c2ccccc12	1.81
Cc1ccc(-n2nnnc2Sc2nc([N+](=O)[O-])nn2C)cc1C	-6.19
O=C(CN(Cc1ccccc1)S(=O)(=O)c1ccc(S(=O)(=O)N2CCOCC2)cc1)Nc1ccccc1	-8.64
CC(NC(=O)c1ccc2ccccc2n1)c1ccc(Br)cc1 (stereo not drawn)	13.2
COc1ccc(CCNC(=O)C(=O)NCC2OCCN2S(=O)(=O)c2ccc3c(c2)OCCO3)cc1OC (stereo not drawn)	1.79
CC(=O)N1CCOc2ccc(S(=O)(=O)Nc3cccc(C)n3)cc21	11.2
COc1ccc(OC)c(S(=O)(=O)N2CCN(CC(O)CN3CCOCC3)CC2)c1 (stereo not drawn)	-5.05
O=C(NC1CSC/C1=N\O)c1ccccc1 (stereo not drawn)	12.4
CCCn1c2ccccc2c2cnn(CC(=O)NCCCN3CCN(c4ccccc4)CC3)c(=O)c21	-74.2
Cc1ccccc1Cn1nc(C)c(NC(=O)c2noc3c2CCCC3)c1C	6.24
COc1ccc(OC)c(-n2c(SCC(=O)N3CCc4ccccc43)nc3c(c2=O)SCC3)c1	0.299
Cc1nn(Cc2ccccc2)c2c1C(c1ccccc1)C(C#N)=C(N)O2 (stereo not drawn)	9.87
O=C(COc1cccnc1[N+](=O)[O-])NCCc1ccccc1	1.46
COc1ccc(C(=O)NCCNc2nc3ccc(C)cc3cc2C#N)cc1	4.99
C=CCn1c(CCC(=O)Nc2ccc(C)c(Cl)c2)nnc1SCC(=O)Nc1ccccc1C	-5.38
CCOc1ccc(Cl)cc1S(=O)(=O)n1nnc2ccccc21	-1.05
CCOc1ccc(C2(C)NC(=O)N(CCN(C)C)C2=O)cc1 (stereo not drawn)	8.75

Structure (SMILES)	hERG current change (%, negative = inhibition) at 10uM [%]
COC(=O)c1ccccc1Sc1c(/C=N/OC(=O)c2ccccc2)c(C(F)(F)F)nn1C	15.4
O=C(NCc1ccco1)c1ccccc1NC(=O)C1CC(=O)N(c2ccc(Cl)cc2)C1 (stereo not drawn)	-78.4
Cc1cccc(Nc2nnc(SCC(=O)NC(=O)Nc3ccc4c(c3)OCCO4)s2)c1	-19.9
COc1ccc(C(=O)OCc2nc(N)nc(Nc3ccccc3C)n2)cc1OC	12.8
Cc1ccc(NC(=O)COC(=O)Cn2c(C)csc2=O)cc1C	2.05
C1CCC(c2nn3c(-c4n[nH]c5c4CCC5)nnc3s2)CC1	-26.7
CCN(CC(=O)Nc1c(F)cccc1F)C(=O)c1ccc(-n2cncn2)c([N+](=O)[O-])c1	-1.72
CC(O)[C@H]1CC[C@H]2[C@@H]3CC[C@H]4C[C@@H](O)CC[C@]4(C)[C@H]3/C(=N/O)C[C@]12C (stereo partly drawn)	6.36
C=CCn1c(C)cc(C(=O)COc2ccc(S(=O)(=O)N3CCCC3)cc2[N+](=O)[O-])c1C	5.51
COc1ccccc1N(C)S(=O)(=O)c1ccc(C(=O)NCCc2ccc(F)cc2)cc1	-1.34
COC(=O)c1ccc(C(NC(=O)OCc2ccccc2)/C(F)=C/[C@@H](C)C(=O)NCc2ccc(OC)c(OC)c2)cc1 (stereo partly drawn)	0.852
CCN(CC)S(=O)(=O)c1ccc2oc(Nc3ccccc3)nc2c1	17.9
CCOc1ccc(NC(=O)CN(C)C(=O)c2cccnc2Sc2ccc(Cl)cc2)cc1OCC	-52.4
Cc1noc(C)c1COC(=O)CN(C)S(=O)(=O)c1ccc(Cl)cc1	-14.4
CCOc1ccc(C(CCc2ccccc2)NC(=O)c2ccc(OC)c(OC)c2)cc1OCC (stereo not drawn)	-15.9
Cc1ccc(S(=O)(=O)N(C)C)cc1N	5.55
CCOC(=O)[C@H]1[C@H]2COc3ccc(C)cc3[C@@H]2N2C(=O)c3cc(F)c(F)cc3NC(=O)[C@@]12C	9.28
COC(=O)CSc1nnc(COc2ccc3ccccc3c2)o1	19
CN(C)c1ccc(C2CC(=O)NC3=C2C(=O)CC(C)(C)C3)cc1 (stereo not drawn)	1.9
Cc1oc(-c2ccc3c(c2)OCCO3)cc1C(=O)O	-3.8
S=C(NC1CCCCC1)N1CCN(c2ccccn2)CC1	-4.09

Source: article PMC4336329 (PLoS ONE, 2015)
